In the RNAGym collection of RNA variant scans (doi:10.7554/elife.90254):
Read counts are not given, so values of variants with three or more changes are uncertain.

B1: LINE1-mini (parent)
chain: GGCAGAGCUCAACACAGCGUGGCAAAGUGGCUGUGGCUAGACUGCC

Variants of: B1
Assay: self-cleavage, relative activity (ratio to wild type); higher = more cleavage; in vitro, sequencing; the parent is a self-cleaving ribozyme

| Variant | self-cleavage |
| --- | --- |
| GGCAGAGCUCAACACAGUGUGGAAAAGUGGCUGUGGCUUGACUGCA | 0.35 |
| GGCAGAGCUGGACACAGCGUGGCAAAGUGGCUGUGGCUCGACUGCA | 0.01 |
| GGCAGAGCCCAACACAGCGUGGCAAAGUGGAUGUUGCUAUACUGCC | 0.01 |
| GGCAGGGCAAAACACACCGGGGCAAAUUGGCUGUGGCUAGACUGCC | 0.01 |
| GGCAGAGCUCAACGUAGCGUGUCAAAUUGGCUGUGGCUAGGCUGCC | 0.02 |
| GGCAGAGCUCAACCCUGCGUGGCAAAGUGGCUGUGGCUAGACUUCC | 0.07 |
| GGCAGAGCUCAACACAGCGUGGCACAGUGGUUGUGGCUAGACUGUC | 0.32 |
| GGGUGAGCUCAACACAGCGUGGCUAAGUGGCUGUGGCUAAACUGCC | 0.04 |
| GGCAGAGCUCACGACAGCGUGGCAAAGUGGCUGUGCCUAGACUGCC | 0.01 |
| GGCCGAGCUCAACUCAGGGUGGCAAAGUGGCUGUGACUAGAAUGCC | 0.15 |
| GGCAGAACUAAACACAGCGUGGCAAAGUGACUGUCGCUAGACUGCC | 0.02 |
| GGCAGAGCUCAACACAGCGAAGAAAAGUGGCUGUGCCUAGACGGCC | 0 |
| GGCAGAGCUCAACACAGCGUGGCAAAGUGGUUGUGACUCGACUGCC | 0.02 |
| GGCAGAGCUCAACACAGCGUGGCAAAGCGCCUGUGGCUGGACUGCC | 0.09 |
| GGCAGAGCUCAACACAGCAUGGCAAAGUAGGUGUGGCUAGUCAGCC | 0.06 |
| GGCAGAGCUCAACACAGCGUAGUAAAGUGGCUGUGGCUAGAUUGCC | 0.27 |
| GGCAGACCUCAACACAGCGUGGCAGAGUGGCUGUGGCGAGACUGCC | 0.02 |
| GGCUGAGCUCAACACAGCGUGCCGAAAUGGCUGUGCCUAGACUGCC | 0.1 |
| GGCAGAGCUCAACACAGCGUGGCCAAGUGGCUGGGGCUAGACAGCC | 0.03 |
| GGCAGAGCUCAACACAGCGUGGAAAAGUGGCUUUGGCUAAACUGCC | 0.11 |
| GGCAGAGCUCUACACAGCGAGGCAAAAUGGCUGUGGCUAAACUCCC | 0.03 |
| GGCAGAGCUCAACACAGCUCGGCAAAGUGGCUGUGGCUCGACUGCC | 0.01 |
| GGCAGAGCUCAACACAGCGUGGCAAAGUGGCUUCGACUAGACUGCC | 0.16 |

| Variant | self-cleavage |
| --- | --- |
| GGCAGAGCGCAACAUAGCGUAGCAAAGUGGCUGUGGCUAGACUGCC | 0.01 |
| GGCAGAGCUCAACACAGCGUGGCCCAUUGGCUGUGGCUAGACUGCC | 0.17 |
| GGCAGAGCUCAACACAGAGUGGCAAAGUGGCUGUGGCUAUACUGCA | 0.03 |
| GGCAGGGUUCAACACAGAGUGGCAAAGUGGCUAUGGCUAGACUGCC | 0.28 |
| GGAAGAGCUCAACACAGCGUGGCAACGUGGCUGUUGCUAGACUGCC | 0.17 |
| GGCAGAGCCCAACACCGCGUGGCAAAGUGGCUGAGGCUAGAAUGCC | 0 |
| GGCUGAGCAGAACACAGCGUAGCAAAGUGGCUGUGGCUAGACCGCC | 0.03 |
| GGCAGAGCUCAACACAGCGAGACAAAGUGGCUGUGGAUAGACUGCC | 0.02 |
| GGCCGAGCUCAACACAGCGAGGCAAAGUGGCUGUGGCUAGUCUGCC | 0.03 |
| GGCUGAGCUCAACACAGCGUGGCAAAGUGGCUGUGGAUAGAACGCC | 0.08 |
| GGCCGAGCUCAACACAGCGUGGCAAAGUGUCUGUGGCGAGACUGCC | 0.09 |
| GGCAGAGCUCAACACAGUGUGUCAAAGUGGCUGUUGGUAGACUGCC | 0.05 |
| GGCAGAGCUCAACACAGCGUGGCAAAUUGGCUGUCGCUAGAAUGCC | 0.02 |
| GGCAGAGCUCAACAUAGCGUGGCAAAGGGGAUGUGGCUAGACUGCC | 0.03 |
| GGCAGAGCUCAUCUCAGCGUGGCAAAGUGGCUGUGGCUAGACUUCC | 0.06 |
| GGCAGAACUCAACACAGCGAGGCAAAGUGGCUGUGGCCAGACUGCC | 0.05 |
| AGCAGUGCUCUACACAGCGUGGCAAAGUGGCUGUGGUUAGACUGCC | 0.02 |
| GGCAGAGCUCAAUACAGCGUGGCCAAGUGGCUGUGGCUAGACCGCC | 0.03 |
| GGCAGAGCUCAUCACAGCGUGGCAAAGUAGCUGUGGUUAGACUGCC | 0.02 |
| GGCAGAGCUCAACACGGAGUUGCAAAGUGGCUGUGGCUAGACUGCA | 0.02 |
| GGCAGAGCUCAGCACAGCGUGGCAAAGUGGCUUUGGCUCGACUGCC | 0.03 |
| GGCAGAGCUCAACACAGCGUGGCAAAGUUGCUGUGUAUAGACUACC | 0.02 |
| GGUAGAGCUCAAGACAGCGGGGCAAAGUGGCGGUGGCUAGAAUGCC | 0.02 |

| Variant | self-cleavage |
| --- | --- |
| GGCAGAGCUCAACACAGCGUGGCAAACUGGCUGUGACUAUUCUGCC | 0.5 |
| GCCCGAGCUCGACACAGCGUGGCAAAGUGGCUGUAGCUAGACUGCC | 0.02 |
| GGCAGAACUGAAGACAACGUGGCAAAGUGGCUGUGGCUAGACUGCC | 0.02 |
| GGCAGAGGUCAACACAGCGUGGCAAGGUGGCUGUGGCUAGUCUGCC | 0.24 |
| GGCAGAGCUCAACACAGCGUGCCAAAGAGGGUAUGGCUAGACUGCC | 0.02 |
| GGCAGAGCUCAACACGGCGUAGCAAAGUGGCUGUGGCUAGACUGAC | 0.2 |
| GGCAGAGCUCAACACAGCGUCGCAAGUUGGCUGUGGCUAGACUGCC | 0.22 |
| GGCAGAACUCAACAAAGCGUGGCUAAGUGGCUGUGGCUCGACUGCC | 0.37 |
| GGCAGAGCUCAACACAGCUUGGCAAACUGGCUUUGGCUAGACUGCC | 0.05 |
| GACAGAGCUCCACACAGCGUGGUAAAGUGGCUGUGGCUAGACUGAC | 0.02 |
| GGGAGAGGUCAACACAGCGGGGCAAAGUGGCUGCGGCUAGACUGCC | 0.01 |
| GGCAGAGCUCAACACGGCGUGGCAAAGUGGCUGUGGCAAGAUUGGA | 0.06 |
| GGCAGAGCUCAACACAGCGUGGCAGAGCGGCUGUGGCUAGACUGUC | 0.14 |
| GGCAGAACUCAACAUAUCGUGGCAAAGUGGCUGUGGUUAGACUGCC | 0.6 |
| GGCGGAGCUCAACACAGCGUGCCAAAGUGGCUGGGGCUAGACUUCC | 0.1 |
| GUCAGAGCUCAAAACAGCGUGGCAAAGUGGCUGUGGCUAGACUGGC | 0.04 |
| GGCAGAGCUCAACAAAGCCUGGCAACGUGGCUGUGGCUAGACUGCC | 0.19 |
| GGCUUAGCGCAACACAGCGUGGCAAAGUGGCUGUGGGUAGACUGCC | 0.13 |
| GGCAGAGCUCAACACAGCGGGGCAUAGUGGCUGUGGCUAUACUGCC | 0.17 |
| GGCAGGGCUCAACACAGCGUGACAAAUUUGCUGUGGCUAGACUGCC | 0.19 |
| GGCAGAGCUCACCAACGCGGGGCAAAGUGGCUUUGGCUAGAUUGCC | 0.01 |
| GGCAGAGCUAAACACAGCCGGGCAAAAUGGCUGUGGCUAGACUGUC | 0.03 |
| GGCAGAGCUUAACACAGCGUGGCAAAGUGGCUGUAGCUGGACUGCC | 0 |

| Variant | self-cleavage |
| --- | --- |
| GGCAGAGCUCAACACAGAGUGGGAAAGUGGCUGUGGCUAAACUGAC | 0.01 |
| UGCAGAGCUAAACACAGCGUUGCAAAGUGGCCGUGGCUAGACUGCC | 0.02 |
| UGGAGAGCUCAACACAGCGUGGCAAAGUGGAUGUGGCUUGACUCCU | 0.02 |
| GGCAGAGCUCUACAUAGAGUGGCAAAGUGGCUGUGCCUAAACUGGC | 0 |
| GGCAGAGCUCAACAAAGCGUGACAAUGUGGCUGUGGCUAGACUGCC | 0.07 |
| CGCAGAGCUCAACACAGCGUGGCAAAGAGGUUGUGGCUAGGCUGCC | 0.01 |
| GCCAGAGCUCAACACAGCGUGCCAAAGUGGCGGUGGCUAGUCUGCC | 0.1 |
| GACACAGCUCAACACAGAGUGGCAAAGAGGCUGUGGCUAGACUGCC | 0.01 |
| GCAAGAGCUGAACACAGCGUGGCAAAGUGGCUGUGGCUACACUGCC | 0.02 |
| GGCAGAGCUCAACAAAGCGUGGCAAACUGGCUUUGGCUAGACUGCC | 0.1 |
| GGCAGAGCUCUACAAAGCGUGGCAAAGUGGCUGUGGCUAGACUGCU | 0.04 |
| GGCAGAUCUCAAAACAGCCUGGCAAAGUGGCUGUGGCUAGACUGCC | 0.72 |
| GGCGGAGAUCACCACAGCGUGGCAAAGUGGCUGUGGCUAAAAUGCC | 0.01 |
| GGCCGAGCUCAACACAGCUUGGCAAAGUGGCUGUGGCUAGACAGCC | 0 |
| GUCCGAGCUCAACACCGCGUGGCAAAGUGGCUCUGGCUAGACUGCC | 0.03 |
| GGCAGAGCUCAACACAGCGUGGCUAAGUGGGUGUGGCUAGAUUGCC | 0.01 |
| CGCAGAGCUACACACAGCGUGGCAAAGUGGCUGUGGCUAGACUGCC | 0 |
| GGCAGAGCUCAACACAGCGUGGCAAAGUGCCUGAGGCCAGACUGCC | 0.03 |
| GGCAAAGCUCAACACAGCGUGGCAAAGUGGCUGUCGCUAGCCUGCC | 0.05 |
| GGCAGAGCUCAACACAACGCGGGAAAGUGGCUGUGGCUAGAAUGCC | 0.02 |
| GGCAGAGCUGAACAUAGCGUGGCAAAGUGGCUGUAGCUAGACUGCC | 0.04 |
| GGCAGAGCUCAACAAAGCGUGGCAUAGUGGCUGUGGCUAGAAUGCC | 0.05 |
| GGCAGACCUCAACACAGCGUGGCAAUGUGGCGGUGGCUAGACUGCC | 0.02 |

| Variant | self-cleavage |
| --- | --- |
| GGCAGAGAUCAUCACAGCGUGGCAAAGUGGCUGUGGUUAGACUGCC | 0.09 |
| GGCAGAGCUCCACACAGAGUGGUAAACUGGCUGUGGAUAGACUGCC | 0.02 |
| GGCAGAGCUCAACACAGCGGGGCUAAGUGGCUGUGGCUGGACGGCC | 0.05 |
| GGCAGAGCUCUACCCAGCGUGGCAAAGGGGCUGUGGCUAGACUGAC | 0.01 |
| GUCAUAGCGCAACACAGCGUGGCAAAGUGGCUGUGGCUAAACUGCC | 0 |
| GGCAGAGCUCAACACAGCGUGGCAAACUGUCUGUGGCUAGAAUGCC | 0.08 |
| GGCAGAGAUCAACACAGCGUGGCAGAGUGGCUGUGGCUAGACCGAC | 0.12 |
| CGCAGAGCUCAAUACAGCGUCGCAAAGUGGCUGUGGCUAGACUGCC | 0.03 |
| GGCAGCGCUCAACUCAGCGUGGCAAAGUGGCUGUGGCUAGACUGCG | 0.17 |
| GGCAGAGCUCAACACAGCGCGGGAAGGUGGCUGUUGCUAGACUGCC | 0.18 |
| GGCAGAGCUCAUCACAUCGUGGCAAAGUGGCUGGGGCUAGACUGCC | 0.01 |
| GUCAGUGCUCAUCACAGCGUGGGAAAGUGGCUGUGGCUAGACUGAC | 0.03 |
| UUUAGAGCGCAACACAGCGUGGCAAAGUGGCUGUGGCUAGACUGCC | 0.14 |
| GGCAGAGCUCAUCAAGGCGUGGCAAAGUGGCUGUGGCUAGACUGCC | 0.02 |
| GUCAGAGCUCAACACAGCGUGGCAAAGUGGCGGUGGCUAGACAGCC | 0.05 |
| GGCAGAGCUCAACACACCGUGGCAAAGUGGCUGUGGCUAUACUGGC | 0.03 |
| GGCGGAGAUCAACACAGCGUGGCGAAGUGGCUGUGGCUAGGCAGCC | 0.29 |
| GGCAGAACGCAACAGAGCGUGGCACAGUGGCUGUGGCUAGACUGCC | 0.07 |
| GGCAGAGCUCGCCACAGCUUGGCAAAGUGGCAGUGGAUAGACUGCC | 0.01 |
| GGUUGAGCUUAACACAGCGUGGCAAAGUGGCUGUGGCUGGACUGAC | 0.07 |
